Assay results published in the GPR68 mutational scans of Howard et al. (2025).
The least precise scores are not listed. The source holds two more conditions with little spread; they are left out. Names with del lack the residues named; names with ins carry added residues between the positions named. For part of these data: How much ogerin was present is not stated here.

B1: GPR68, Q15743 (parent)
chain: MGNITADNSSMSCTIDHTIHQTLAPVVYVTVLVVGFPANCLSLYFGYLQIKARNELGVYLCNLTVADLFYICSLPFWLQYVLQHDNWSHGDLSCQVCGILLYENIYISVGFLCCISVDRYLAVAHPFRFHQFRTLKAAVGVSVVIWAKELLTSIYFLMHEEVIEDENQHRVCFEHYPIQAWQRAINYYRFLVGFLFPICLLLASYQGILRAVRRSHGTQKSRKDQIQRLVLSTVVIFLACFLPYHVLLLVRSVWEASCDFAKGVFNAYHFSLLLTSFNCVADPVLYCFVSETTHRDLARLRGACLAFLTCSRTGRAREAYPLGAPEASGKSGAQGEEPELLTKLHPAFQTPNSPGSGGFPTGRLA

Experiments:
[1] = variants of: B1; assay: cAMP reporter score (Enrich2 score, wild type = 0); higher = more signal; HEK293T, FACS bins
[2] = variants of: B1; assay: surface expression score (Enrich2 score, wild type = 0); higher = more signal; HEK293T, FACS bins

| Variant | cAMP reporter score ([1]; pH 5.5) | cAMP reporter score ([1]; pH 6, modulator: ogerin) | cAMP reporter score ([1]; pH 6.5, modulator: ogerin) | surface expression score [2] | cAMP reporter score ([1]; pH 6) |
| --- | --- | --- | --- | --- | --- |
| Y320_P321insGSG | -0.403 | 0.392 | 0.402 | 0.033 | – |
| L322_A324del | 0.426 | 0.596 | -0.91 | -0.024 | 0.269 |
| L322_G323insGS | 0.707 | 1.05 | 0.161 | 0.96 | 0.067 |
| L322_G323insG | 0.04 | 0.064 | -0.166 | -0.39 | -0.424 |
| G323Y | 0.544 | 0.388 | -0.121 | 0.243 | -0.308 |
| G323K | 0.638 | 0.521 | -0.122 | -0.016 | 0.483 |
| G323R | 0.908 | 1.62 | 0.725 | 0.617 | – |
| G323W | 0.166 | -0.784 | -0.825 | -1.21 | – |
| G323D | 0.564 | 0.121 | 0.624 | 0.584 | 0.325 |
| G323N | 0.237 | 0.363 | 0.463 | -0.075 | 0.485 |
| G323P | 0.171 | 0.15 | -0.211 | 0.163 | -0.445 |
| G323H | 0.21 | 0.145 | -0.116 | -0.533 | 0.207 |
| G323V | -0.059 | -0.035 | -0.459 | -0.694 | -0.762 |
| G323M | 0.043 | -0.059 | -0.874 | -1.11 | -0.728 |
| G323I | -0.637 | -0.873 | -0.525 | -1.57 | -1.3 |
| G323E | 0.67 | 1.03 | 1.55 | 1.59 | – |
| G323A | -1.32 | -0.667 | -0.427 | -0.26 | – |
| G323T | 0.555 | -0.215 | 1.13 | -0.356 | 1.17 |
| G323Q | -0.094 | 0.355 | -0.405 | 0.481 | 0.047 |
| G323F | -0.161 | -0.472 | 0.006 | – | -1.65 |
| G323S | 0.5 | 0.098 | 0.337 | -0.571 | 0.037 |

| Variant | cAMP reporter score ([1]; pH 5.5) | cAMP reporter score ([1]; pH 6, modulator: ogerin) | cAMP reporter score ([1]; pH 6.5, modulator: ogerin) | surface expression score [2] | cAMP reporter score ([1]; pH 6) |
| --- | --- | --- | --- | --- | --- |
| G323L | -0.502 | -0.939 | -0.881 | -2.64 | -1.4 |
| G323C | 0.082 | -0.329 | -0.499 | -0.309 | -0.928 |
| Y320_P321insGS | 1.18 | 0.839 | 0.994 | 0.552 | 0.03 |
| L322G | -0.03 | -0.077 | -0.629 | 0.316 | 0.325 |
| L322R | -0.213 | -0.28 | – | 0.003 | 2.26 |
| L322Q | -0.075 | 1.37 | -0.202 | 0.491 | -0.593 |
| L322H | 0.704 | 1.35 | 0.885 | 0.902 | -0.214 |
| L322K | 1.31 | 1.49 | 0.863 | – | 1.7 |
| L322I | -0.414 | 0.423 | -0.395 | 0.51 | 0.067 |
| L322N | 1.27 | 1.52 | 0.79 | 1.2 | 0.22 |
| L322M | 1.03 | 0.695 | 0.216 | 0.683 | 1.4 |
| L322A | -0.382 | – | 0.677 | 0.288 | – |
| L322F | -0.119 | 0.287 | -0.508 | -0.212 | -0.507 |
| L322S | 1.33 | 0.768 | 0.147 | 0.261 | -0.882 |
| L322V | 0.601 | 0.959 | 0.524 | 0.738 | -0.111 |
| L322E | 0.599 | 0.767 | -0.417 | 0.318 | -0.343 |
| L322C | -0.47 | -0.225 | 0.827 | 0.396 | 0.536 |
| L322D | 0.365 | -0.068 | 0.255 | 0.185 | -0.479 |
| L322Y | 0.825 | 0.963 | 0.784 | 0.129 | 0.157 |
| L322P | 0.542 | -0.113 | 0.714 | 0.349 | 1.76 |
| L322W | 0.656 | 0.734 | – | – | 1 |

| Variant | cAMP reporter score ([1]; pH 5.5) | cAMP reporter score ([1]; pH 6, modulator: ogerin) | cAMP reporter score ([1]; pH 6.5, modulator: ogerin) | surface expression score [2] | cAMP reporter score ([1]; pH 6) |
| --- | --- | --- | --- | --- | --- |
| P321R | 0.377 | -0.373 | -0.648 | -0.759 | -0.444 |
| P321V | -1.08 | -1.36 | -1.44 | -1.45 | -1.05 |
| P321Y | 0.547 | 0.718 | -0.019 | 0.36 | -1.04 |
| P321H | 0.752 | 0.344 | -0.295 | 0.847 | -0.469 |
| P321M | 0.781 | 0.647 | 0.37 | 0.25 | – |
| P321K | -0.068 | 0.221 | 0.013 | -0.787 | -0.023 |
| P321A | -0.665 | 0.693 | -0.102 | 1.03 | – |
| P321N | -0.328 | -0.401 | -0.117 | -0.605 | -0.302 |
| P321C | 0.283 | 0.384 | 0.437 | -0.064 | 0.228 |
| P321T | 0.446 | 0.653 | -0.32 | 0.443 | – |
| P321I | -0.035 | 0.104 | -0.603 | -0.533 | – |
| P321Q | 0.294 | 0.577 | -0.079 | 0.295 | 0.377 |
| P321G | -1.06 | -0.327 | -0.201 | -0.861 | -1.36 |
| P321S | 0.038 | 0.519 | 0.971 | 1.14 | – |
| P321F | 0.75 | 0.684 | 0.397 | -0.145 | – |
| P321L | -0.673 | -0.353 | -0.478 | -1.46 | -1.21 |
| P321E | 0.911 | 1.39 | 1.15 | 1.16 | 2.92 |
| P321D | -0.094 | -0.048 | 0.068 | 0.462 | -0.38 |
| P321W | 0.849 | 0.826 | 0.248 | -0.224 | -0.675 |
| P321_L322insGS | 0.417 | 0.73 | 1.04 | 0.392 | 0.849 |
| P321_L322del | 0.482 | 1.1 | 0.666 | 0.578 | 0.288 |
